Inconclusive results, whose numbers are uncertain, are shown with a selection of clear calls. A potency beside an inconclusive call is a rough fit, not a confirmed value. Calls of active or inactive are those of the source. Calls come from the whole dose curve; as a rule, active = well fitted inhibition curve with a large enough effect; inconclusive = small, poorly fitted or top-dose-only effect; inactive = no such curve, though single readings can be large or run the other way.
Test: BET inhibitor-based combinations targeting novel dependencies in MECOM-rearranged (r) AML: UCSD-AML1 cell line (AID 2202235); note: nearly all actives have a fitted effect of over 40% in size;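 for viability (% of control): plate controls were DMSO vehicle wells for no effect and blank wells for full effect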
Conditions: UCSD-AML1 AML cells viability, CellTiter-Glo, 48 h; viability (% of control): at 46 µM (top of the series)
Outline: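 Luminescent ATP readout (CellTiter-Glo, 15 min at room temperature) after 48 hr drug exposure gave viability. Dose-response curves, normalized to DMSO and empty-well controls, were summarized as area under the curve and its mean-centred Z-score.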
With `Cn1nnc2c(C(N)=O)ncn2c1=O` the Potency was inconclusive: 10.5 µM [inhibitor, full curve]. With `Cc1ccc(Nc2cc(N[C@@H]3CCCC[C@@H]3N)nnc2C(N)=O)nc1C` the Potency was inconclusive: 7.42 µM [inhibitor, single point]. For `C[C@]12CC[C@H](O)CC1=CC[C@@H]1[C@@H]2CC[C@]2(C)C(c3cccnc3)=CC[C@@H]12`, the “viability (% of control)” value was inactive: 105% [at 15.6 µM]. For `CC1CCC(n2c3cnccc3c3cnc(Nc4ccc5c(n4)CCN(C(=O)CO)C5)nc32)CC1` (stereo not given), the Potency was inconclusive: 0.762 µM [inhibitor, full curve]. With `O=C([O-])C[O-].[Pt+2]` the “viability (% of control)” value was inactive: 102%. For `c1ccc2c(-c3cnn4cc(-c5ccc(OCCN6CCOCC6)cc5)cnc34)ccnc2c1`, the Potency was inconclusive: 16.2 µM [inhibitor, single point]. In the case of `CCCS(=O)(=O)Nc1ccc(F)c(C(=O)c2c[nH]c3ncc(-c4ccc(Cl)cc4)cc23)c1F`, the Potency is reported as inconclusive: 29.5 µM [inhibitor, single point]. In the case of `CC(C)(O)c1coc(S(=O)(=O)NC(=O)Nc2c3c(cc4c2CCC4)CCC3)c1`, the “viability (% of control)” value is reported as inactive: 98.8%. In the case of `CN1C(N)=N[C@](C)(c2cc(NC(=O)c3ccc(F)cn3)ccc2F)CS1(=O)=O`, the “viability (% of control)” value is reported as inactive: 115%. With `CC(C)=CC[C@@H](O)C1=CC(=O)c2c(O)ccc(O)c2C1=O` the Potency was active: 10.5 µM. In the case of `CN(CCOc1ccc(-c2ccc3c(c2)OCO3)cc1C(C)(C)C)CC(=O)O`, the “viability (% of control)” value is reported as inactive: 108%. For `CCCc1nc2c(C)cc(-c3nc4ccccc4n3C)cc2n1Cc1ccc(-c2ccccc2C(=O)O)cc1`, the “viability (% of control)” value was inactive: 106%. For `C=Cc1c(C)c2cc3nc(cc4[nH]c(cc5nc(cc1[nH]2)C(C)=C5CCC(=O)O)c(CCC(=O)OC)c4C)[C@@]1(C)C3=CC=C(C(=O)OC)[C@H]1C(=O)OC`, the “viability (% of control)” value was inactive: 106%. In the case of `O=c1cc(-c2ccccc2)oc2cc(O)cc(O)c12`, the Potency is reported as inconclusive: 33.2 µM [inhibitor, single point]. In the case of `Cc1ccc(NS(=O)(=O)c2ccc3c(c2)C2C=CCC2C(c2ccc(C(=O)O)cc2)N3)cc1C` (stereo not given), the “viability (% of control)” value is reported as inactive: 116%. With `Cc1c(Cn2c(C)nc3c(C(=O)O)cc(N4CCOCC4)cc32)cccc1C(F)(F)F` the Potency was inconclusive: 11.8 µM [inhibitor, single point]. With `COCCNc1cc(NC(=O)N2CCCc3cc(CN4CCN(C)CC4=O)c(C=O)nc32)ncc1C#N` the viability (% of control) was inactive: 96.8% [at 8.46 µM]. For `CC1(C)[C@@H](O)CC[C@]2(C)[C@H]3C(=O)C=C4[C@@H]5C[C@@](C)(C(=O)O)CC[C@]5(C)CC[C@@]4(C)[C@]3(C)CC[C@@H]12`, the “viability (% of control)” value was inactive: 98.8%. With `Cc1cc(-c2cc(OC(=O)c3ccccc3)ccc2Cl)cc2nnc(Nc3ccc(OCCN4CCCC4)cc3)nc12` the Potency was inconclusive: 18.2 µM [inhibitor, single point]. For `COc1cc2c(cc1O)CCN[C@]21CS[C@@H]2c3c(OC(C)=O)c(C)c4c(c3[C@H](COC1=O)N1[C@@H]2[C@H]2c3c(cc(C)c(OC)c3O)C[C@@H]([C@@H]1O)N2C)OCO4`, the Potency was active: 0.0096 µM.

Reference: PubChem BioAssay (NCATS)
Potency is the fitted concentration of half-maximal effect; tags give direction and shape of the fitted curve.
